The results in this text go back to PubChem BioAssay AID1362 (SRMLSC, 2008).

Values joined by “and” are separate entries in the source; they are usually repeats but may differ in a detail not shown here. Equal entries are not always repeated. Some of the results follow. These are further read-outs of the screen, such as a control signal, another cell line or another target. No call is given for them. Compounds called inactive in the main read-out are mostly missing here.

The nature of the experiment: growth inhibition of WT strain, primary screen, mitochondrial fusion inhibitor project, WT and mutant strains, chemical genetic (AID 1362). Note: tested in S. cerevisiae. Conditions: mitochondrial fusion phenotypic screen, at 10 µM.
As to `Cc1cc(C)nc(-n2nc(C)cc2Nc2ccccc2)n1`, the inhibition was 71.3%.
The figure for `Fc1ccc(-c2csc3[n+]2CCS3)cc1` is 47.4%.
The figure for `Cc1cccc(NCc2nc3ccccc3n2Cc2ccccc2)c1` is 57.6%; for `Clc1ccc(C2=NNC(=NCc3ccc4c(c3)OCO4)SC2)cc1` it is 1.65%.
With `Cc1ccc2nc(-c3ccccc3)c(CN3CCN(c4ccccc4F)CC3)n2c1`, the inhibition is 16%.
To `COC(=O)C(Nc1ccccc1Cl)(c1cc(C)c(O)c(C)c1)C(F)(F)F` (centres undefined) belongs 81%; to `Cc1ccc(NC2(c3nnnn3-c3c(C)cccc3C)CCCCC2)cc1`, 48.1%; to `COc1ccc(S(=O)(=O)Oc2ccc3ccccc3c2)cc1`, 23.8%.
As to `O=S(=O)(Nc1ccc(O)c(Sc2nc3ccccc3s2)c1)c1cccc2ccccc12`, the inhibition worked out at 14.5%.
For `Cc1ccc(Cn2c(Cc3ccccc3)nc3ccccc32)cc1`, the inhibition stood at 60.2%.
To `Cc1ccc(N=Nc2c(N)[nH]n3c(=O)cc(-c4ccccc4)nc23)cc1` belongs 21%; to `Clc1ccc(-c2n[nH]c3c2CCC3)c(Cl)c1`, 58.9%; to `COc1ccc(-c2csc(Nc3ccccc3)n2)cc1`, 63.9%.
The figure for `Cc1ccc2oc(=O)n(CCCOc3ccccc3C)c2c1` is 15.7%.
To `CCc1cc2c(=O)c(-c3cscn3)coc2cc1O` belongs -1.18%; to `CCC(C(=O)OCC(=O)Nc1cc(Cl)cc(Cl)c1)c1ccccc1` (centres undefined), 40.5%; to `CCCCCCCCCCCCCCCC[n+]1ccc(/C=N/O)cc1`, 96.9%.
With `CCOc1ccc2c(c1)OC(c1ccc(C)cc1)(C(F)(F)F)NC2=O` (centres undefined), the inhibition came out at 33%.
As to `COCCn1c(=S)[nH]c2cc(C(=O)N3CCc4ccccc43)ccc2c1=O`, the inhibition turned out to be 18.8%.
The figure for `COCC(=O)Nc1nnc(-c2ccc(C(C)(C)C)cc2)s1` is 57.9%; for `CN(C)C(=O)CSc1nnc(CCCCCNC(=O)OC(C)(C)C)o1` it is -2.8%; for `Cc1cccc2sc(N(CCCN(C)C)C(=O)c3sc4ccccc4c3Cl)nc12` it is 86%.
Turning to `Cc1ccc(C(C#N)c2ccc3c(C(F)(F)F)cc(C(F)(F)F)nc3n2)cc1` (centres undefined), the inhibition is 34.7%.
To `CC1CCCN(C(=O)Cc2cn(Cc3cccc(Cl)c3)c3ccccc23)C1` (centres undefined) belongs 27.1%; to `Oc1ccccc1-c1nc(/C=C/c2ccccc2)nn1-c1ccccc1`, -5.99%.
To `CC(=O)Nc1ccccc1/C=C/c1ccc2c(C)cc(C)c(O)c2n1` belongs 73.4%; to `C/C(=N\O)c1ccc2c3c([nH]c2c1)CCCC3`, -0.82%; to `CCN(CC(=O)Nc1c(C(=O)OC)[nH]c2ccc(Cl)cc12)c1ccc2c(c1)OCO2`, 42.7%.
The figure for `O=C(c1cc2ccccc2o1)N(C1CC1)C1(C(=O)Nc2ccccc2)CCCC1` is 42.3%; for `COc1ccc(C2c3sc(=O)[nH]c3SC3C4CCC(C4)C23)cc1` (centres undefined) it is 34.8%; for `CC(=O)N1CCC(O)(c2cccc(C(F)(F)F)c2)CC1` it is 6.45%.
As for `Cc1cc(OCc2cccc(Cl)c2)c(C)cc1CN1CCOCC1`, the inhibition was 69.1%.
Regarding `O=C1Nc2ccc(Cl)cc2C12Nc1ccccc1-c1nnc(SCc3ccccc3F)nc1O2` (centres undefined), the inhibition came to 18.3%.
To `O=C(Nc1ccc(N2CCCC2)c(Cl)c1)c1ccc([N+](=O)[O-])o1` belongs 58%; to `CC1CCCCN1c1nc(-c2ccncc2)nc2ccccc12` (centres undefined), 44.9%.
The figure for `CCn1c(Cn2nnc(-c3ccccc3)n2)nnc1SCc1ccc(Cl)c(Cl)c1` is 53.1%; for `C=C(C)CNC(=S)N/N=C1\CCCCc2ccccc21` it is 55.3%.
The figure for `Clc1ccc(C(c2nnnn2C2CCCCC2)N(Cc2cccnc2)Cc2ccco2)cc1` (centres undefined) is 2.87%; for `CNC(=S)N/N=C/c1cn(Cc2c(F)cccc2Cl)c2ccccc12` it is 54.9%.
In the case of `O=C(c1ccccc1Cl)N1N=C(c2ccc(Br)cc2)CC1c1nc2ccccc2[nH]1` (centres undefined), the inhibition turned out to be 65.2%.
To `O=C(NC1=NCCS1)c1cccc2ccccc12` belongs 79.8%.
To `COc1cccc(Nc2nc(NCCO)c3ccccc3n2)c1` belongs 54.9%; to `N#Cc1nc(COc2ccc(-c3ccccc3)cc2)oc1NCCCN1CCOCC1`, 58.5%; to `OC(CNCCC1C=Nc2ccccc21)Cn1c2ccc(Cl)cc2c2cc(Cl)ccc21` (centres undefined), 97%.
For the molecule `CS(=O)(=O)N1CCc2cc(C(=O)N3CCOCC3)ccc21`, the inhibition was found to be 8.53%.
For the molecule `Cc1cccc(NC(=S)N=Nc2c(O)n(CN3CCOCC3)c3ccccc23)c1C`, the inhibition was 43.6%.
To `O=C(CN1CCN(c2ccccc2)CC1)Nc1ccc(Oc2ccccc2)cc1` belongs 36.1%; to `O=C(Nc1nc(SCc2ccc(F)cc2)ns1)c1ccco1`, 52.1%; to `Cc1ccc(C(=O)NNC(=S)NC(=O)COc2ccccc2)cc1`, 73.2%.
Turning to `Cc1sc2cc3c(c(C(=O)c4ccccc4)[n+]2c1C)-c1cccc2cccc-3c12`, the inhibition came out at 65.7%.
For the molecule `Cc1oc(-c2cccc3ccccc23)nc1CN1CCN(c2ncnc3ccccc23)CC1`, the inhibition amounted to 34.3%.
To `CC1CN(c2oc(Cc3cccc4ccccc34)nc2C#N)CC(C)O1` (centres undefined) belongs -0.29%; to `O=C(c1ccccc1)c1cc(Cl)ccc1N1C(=O)C=CC1=O`, 17.4%; to `CCOc1ccc(NC(=S)N(CCCN2CCCC2)Cc2cccn2Cc2ccc(Cl)cc2)cc1`, 21.4%.
To `CC(C)CCn1c(=O)c2ccccc2c2ccccc2c1=O` belongs 33.9%.
To `Cc1cccc(-n2c(=O)c3c(n4cnnc24)-c2ccccc2CC32CCCCC2)c1` belongs 11.6%; to `COc1ccc(N(C(=O)c2ccco2)S(=O)(=O)c2cc(Cl)c(Cl)cc2Cl)cc1`, 25.8%.
Regarding `Cc1ccc(-c2csc(NC(=O)c3ccc(-c4ccccc4)cc3)n2)o1`, the inhibition was 75.5%.
The figure for `O=c1cc2c(nn1Cc1cccc(Cl)c1)-c1ccccc1CC2` is 57.2%.
On to `CCCOc1ccc(-c2nc(OCC)c3ccccc3n2)cc1`, for which the inhibition stood at 22.8%.
With `CCCCCC[n+]1c(-c2ccccc2)csc1Nc1ccccc1`, the inhibition turned out to be 9.43%.
The figure for `COc1ccc(-c2csc(NC(=O)c3ccccc3NS(=O)(=O)c3ccc(F)c(F)c3)n2)cc1` is 85.4%; for `COc1cc2c(cc1NC(=O)Nc1ccc(C)cc1)oc1ccccc12` it is -5.51%; for `CCN(C(=O)c1cnc(N2CCN(c3ncccn3)CC2)c2ccccc12)c1cccc(Cl)c1` it is 29.9%.
Consider `COc1cc(OC)nc(Oc2ccccc2C(=O)Oc2ccc(Cl)cc2)n1`, for which the inhibition was determined as 27.7%.
For `COc1cc(Cl)c(C)cc1NC(=O)CN(C)Cc1cccc(OC)c1OC`, the inhibition came out at 29.5%.
On to `S=c1[nH]nc(COc2cccc(Cl)c2)n1Cc1ccccc1`, for which the inhibition came to 40.8%.
To `Cc1ccccc1OCc1n(CC(=O)OC2CC(C)CCC2C(C)C)c2ccccc2[n+]1C` (centres undefined) belongs 31.1% and 21.5%; to `Cc1cccc(N2CCN(C(=O)c3cc4n(n3)C(C(F)(F)F)CC(c3ccco3)N4)CC2)c1C` (centres undefined), 33.2%; to `CC(=O)N(CCC(Cc1ccccc1)c1ccc2c(c1)OCO2)Cc1ccccc1F` (centres undefined), 57%.
Turning to `Cc1ccc(S(=O)(=O)c2c(C)nn(C(C)(C)C)c2OC(=O)CC(C)C)cc1`, the inhibition worked out at 17.4%.
For `COc1ccccc1-c1cc(C(F)(F)F)nc(NCc2ccco2)n1`, the inhibition stood at 54.6%.
`CCc1ccc2ncc(S(=O)(=O)c3ccc(C)c(C)c3)c(N3CCCC3)c2c1`: the inhibition is -0.88%.
As for `Cc1cc(C)c2nc(N3CCCC(C(=O)N4CCN(c5ncccn5)CC4)C3)sc2c1` (centres undefined), the inhibition is 57.5%.
To `O=[N+]([O-])c1ccc(-c2nc(-c3cccs3)c(-c3cccs3)[nH]2)cc1` belongs 61%.
To `O=C1NC(=S)S/C1=C\c1ccc(SCc2ccccc2)o1` belongs 81.4%; to `c1ccc(Nc2cccc(Nc3ccccc3)c2)cc1`, 35.3%.
To `COc1cc(/C=N/NC(=Nc2ccc(C)cc2)c2nc3ccccc3s2)ccc1O` belongs 33%; to `O=C(COC(=O)c1cc(-c2cccc(Br)c2)nc2ccccc12)NCC1CCCO1` (centres undefined), 19.2%.
`CC1C/C(=N\NC(=S)NC(C)C)CC(C)(C)C1` (centres undefined): the inhibition came out at 64.1%.
Consider `COc1cc(/C=C(\C#N)c2nc3ccccc3s2)cc([N+](=O)[O-])c1O`, for which the inhibition is 37.2%.
With `Cc1ccc(NC(=O)c2cc(N3C(=O)C=CC3=O)ccc2N2CCOCC2)cc1Cl`, the inhibition came out at 61.9%.
To `CCOC(=O)c1nc(Nc2ccc(Nc3ccccc3)cc2)c2ccccc2n1` belongs 51.6%; to `COc1ccccc1N=Nc1nc(-c2ccccc2)c(-c2ccccc2)[nH]1`, 14.1%.
`COC(=O)c1c(NC(=O)c2ccccc2)sc(Cc2ccccc2)c1C`: the inhibition was determined as 28.9%.
The figure for `CC1CC1C(=O)OCC(=O)NCc1ccc(Cl)cc1Cl` (centres undefined) is -1.28%.
To `O=C(Nc1ccc(Cl)c(Cl)c1)O/N=C/c1ccncc1` belongs 72.1%; to `CCN(CC)c1nc(-c2ccccn2)nc(-c2ccccc2)c1C#N`, 55.4%; to `Clc1ccc2ncc(-c3nnnn3-c3ccccc3)c(-c3ccccc3)c2c1`, 15.1%.
In the case of `Cc1cc(Nc2nc(Cl)c(Cl)cc2Cl)n(-c2ccccc2)n1`, the inhibition amounted to 1.73%.
For the molecule `Cc1ccc(Cl)cc1NC(=S)N1CCC(c2ccccc2)C1` (centres undefined), the inhibition amounted to 22.9%.
For `Cc1ccccc1/C(N)=N/OC(=O)N1c2ccccc2Sc2ccccc21`, the inhibition is -8.53%.
To `Cc1nc2ccc(S(=O)(=O)Nc3cccc(-c4nc5cccnc5s4)c3)cc2s1` belongs 26.1%.
To `CCCn1nnc(NC(=O)c2ccc(-c3cccc(Cl)c3)o2)n1` belongs -7.65%; to `CCCCS(=O)(=O)/C=C\C=C/S(=O)(=O)CCCC`, 84.2%; to `Cc1cccc(Cn2nc(-n3cccc3)c3c(C)cc(C)nc32)c1`, 11.2%.
To `N#CC1=C(N)C2=CCCC[C@H]2[C@H](c2ccc(Br)cc2)C1(C#N)C#N` belongs 15.6%; to `C[N+]1(CC(=O)Nc2ccc(F)cc2)CCN(C(=O)c2ccco2)CC1`, 20.9%; to `CCCN(CCC)C(=S)NC(=O)c1ccc(-c2ccccc2)cc1`, 59.3%.
As to `C1=C(CCNc2ncnc3c2[nH]c2ccccc23)CCCC1`, the inhibition was found to be 76.9%.
For the molecule `Brc1ccc(-c2nnc(-c3ccccc3)c(N3CCSCC3)n2)cc1`, the inhibition was 40.7%.
The figure for `CCCCOP(=O)(c1ccc(N(C)C)cc1)C(Nc1ccccc1)c1ccccc1` (centres undefined) is 27.6%; for `CC1/C(=N/O)CC(c2ccccc2)N(C)C1c1ccccc1` (centres undefined) it is 98.4%; for `CCCCCOc1ccc(Br)cc1CSC(=N)N` it is 35.5%.
To `COc1cc(CNn2c(C)n[nH]c2=S)cc(Cl)c1OCc1ccc(F)cc1` belongs 30.5%.
As for `CC(C)=C1C2CCC1C1C(=O)N(c3nc(-c4ccccc4)c(C)s3)C(=O)C21` (centres undefined), the inhibition was determined as 15.3%.
The figure for `CCCCn1c(-c2csc(C(C)C)c2)n[nH]c1=S` is 55.6%; for `CCc1ccc(OCc2n[nH]c(=S)n2Cc2ccccc2)cc1` it is 44.2%.
The figure for `CCOC(=O)C1=C(C)Nc2sc(C(=O)c3ccc(F)cc3)c(N)c2C1c1ccc(C(=O)OC)cc1` (centres undefined) is 3.39%.
